In all, about 350,000 compounds went through this assay and about 2,300 (0.66%) were called active. The shares of active, inactive and inconclusive entries below differ from those in the screen.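 The calls were made as follows: active = mean inhibition of at least 50% after viability correction, with every replicate also passing that limit; inconclusive = mean reaches 50% but only one of two replicates passes; inactive = the rest.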
Test: blockers of EWS/Fli transcriptional output – A673 cells, NR0B1 luciferase, luminescence, MLPCN library, primary screen (AID 651661);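 also: firefly luciferase signal divided by Alamar Blue viability fluorescence both relative to DMSO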
Settings: A673 NR0B1-luciferase reporter, viability-normalised; at 12.6 µM; hits give high values
In the case of O=C([C@@H]1[C@@H](CO)[C@@H]2Cn3c(ccc(-c4ccccc4F)c3=O)[C@H]1N2C(=O)C1CC1)N1CCCCC1, the inhibition is reported as inactive: -0.103%. In the case of C[C@@H]1CN([C@@H](C)CO)C(=O)c2cc(NC(=O)C3CCCCC3)ccc2O[C@@H](C)CCCCO[C@@H]1CN(C)CC1CCCCC1, the inhibition is reported as inactive: 0.719%. With COc1cc(C(=O)NN=Cc2ccc(N(C)C)cc2)cc(OC)c1OC the inhibition was inconclusive: 50.6%. For N#CC1(NC(=O)Cn2ncc(Cl)c(Cl)c2=O)CCCCC1, the inhibition was inconclusive: 57%. For O=C(Cn1ncc(Cl)c(Cl)c1=O)NCC1CCCCC1, the inhibition was inconclusive: 50.2%. With CC(C)c1nnc(NC(=O)c2ccc3c(c2)OCO3)s1 the inhibition was inconclusive: 52.2%. With CN(C)c1cccc(F)c1C(=O)NC(=O)Nc1ccc(Cl)cc1 the inhibition was active: 52.9%. In the case of COc1cc(C=NO)nc(-c2ccccn2)c1, the inhibition is reported as inconclusive: 51.4%. For CC(=O)Oc1ccc(/C=C2/CCc3ccccc3C2=O)cc1, the inhibition was active: 74.2%. For CCOc1ccc(OCc2cccc(C(=O)N3CCCCCC3)c2)cc1, the inhibition was inconclusive: 50.2%. With COc1ccc2c(c1)OC[C@H]1[C@H]2N2C(=O)c3cc(OC)c(OC)cc3NC(=O)[C@@]2(C)[C@H]1c1ccccc1 the inhibition was inactive: -7.52%. With COc1ccccc1NC(=O)N1CCCCN2[C@@H](CO)[C@@H](c3ccc(C#CC4CCCC4)cc3)[C@@H]2C1 the inhibition was active: 71.1%. For COc1cc(OC)c2c(-c3cccc(-c4ccc(C(F)(F)F)cc4)c3)cc(=O)oc2c1, the inhibition was inconclusive: 51.9%. In the case of COc1cc(/C=C/C(=O)/C=C(O)/C=C/c2ccc(O)c(OC)c2)ccc1O, the inhibition is reported as active: 80.9%. For Cn1c(=O)c2c(nc(NCCc3ccccc3)n2Cc2ccc(F)cc2)n(C)c1=O, the inhibition was inactive: 16.4%. With O=C(OCc1ccccc1)N(CCCCN(CCCNCc1ccccc1)C(=O)OCc1ccccc1)CCCNCc1ccccc1 the inhibition was inconclusive: 51.2%. In the case of Cc1ccc(C(C)C)c(OCc2ccc(C(=O)N/N=C/c3ccc(O)cc3O)cc2)c1, the inhibition is reported as active: 62.8%. For O=C(CCn1nnnc1CN1CCOCC1)N1CCC(c2ccccc2F)C1 (stereo not drawn), the inhibition was inactive: 1.31%. With C[C@@H]1CN([C@@H](C)CO)C(=O)c2cc(NC(=O)CCCCCC(=O)Nc3ccccc3N)ccc2O[C@@H](C)CCCCO[C@@H]1CN(C)CC1CCCCC1 the inhibition was inconclusive: 54.2%. With C[C@H]1CN([C@@H](C)CO)C(=O)Cc2cc(NC(=O)c3ccncc3)ccc2O[C@@H]1CN(C)CC1CCCCC1 the inhibition was inactive: 2.19%. For CC1CN(S(=O)(=O)c2ccc(C(=O)Nc3nncs3)cc2)CC(C)O1 (stereo not drawn), the inhibition was inactive: 8.99%. In the case of O=C(Cn1ncc(Cl)c(Cl)c1=O)N1CCc2ccccc21, the inhibition is reported as active: 54.4%. For O=C(NCCc1ccc(O)c(O)c1)C1COc2ccccc2O1 (stereo not drawn), the inhibition was inconclusive: 50%. For O=c1c2cc(NC(=S)NCCN3CCCCCC3)ccc2nc2n1CCCCC2, the inhibition was inactive: -4.74%. With CCOc1ccc2[nH]c(C(=O)N/N=C/c3ccc(OC)cc3)cc2c1 the inhibition was inconclusive: 50.6%. For C[C@@H]1CN([C@H](C)CO)C(=O)c2cc(NC(=O)Nc3cccc4ccccc34)ccc2O[C@@H](C)CCCCO[C@@H]1CN(C)Cc1ccccc1, the inhibition was inconclusive: 55.4%. With CS(=O)(=O)Nc1ccc2c(c1)[C@@H]1C[C@@H](CC(=O)NCc3ccc(Cl)cc3)O[C@@H](CO)[C@@H]1O2 the inhibition was inconclusive: 50.6%. For CCC(=O)N(C)C[C@H]1Oc2cc(C#CCC3CCCC3)ccc2S(=O)(=O)N([C@@H](C)CO)C[C@@H]1C, the inhibition was inconclusive: 50.3%. With Cc1ccc(S(=O)(=O)Nc2ccc3c(c2)C(=O)N([C@@H](C)CO)C[C@@H](C)[C@@H](CN(C)Cc2ccc(C(F)(F)F)cc2)OCCCC[C@@H](C)O3)cc1 the inhibition was inconclusive: 51.7%. For COc1ccc(OC)c(N(CCN2C(=O)c3ccccc3C2=O)C(=O)CCl)c1, the inhibition was inconclusive: 50.4%. In the case of CCOC(=O)c1ccc(-c2ccc(C3Nc4ccccc4C(=O)N3O)o2)cc1 (stereo not drawn), the inhibition is reported as inconclusive: 54%. In the case of CN(C)c1ccc(N=Nc2nc3ccccc3n2C)cc1, the inhibition is reported as active: 86.4%. For Cc1ccc(S(=O)(=O)N(C)C[C@H]2OCCCC[C@H](C)Oc3ccc(NS(=O)(=O)c4cccs4)cc3C(=O)N([C@H](C)CO)C[C@H]2C)cc1, the inhibition was inactive: -5%. In the case of COc1cc(SC)ccc1C(=O)N1CCN(c2ccccc2OC)CC1, the inhibition is reported as inconclusive: 51%. With CCCCCCN(C(=O)CCCCCN1C(=O)NC(c2ccc([N+](=O)[O-])cc2)C(C(=O)OCc2ccccc2)=C1C)C(C(=O)NCCCC)c1ccc(OCC(=O)OC)c(C(=O)OC)c1 (stereo not drawn) the inhibition was inconclusive: 53.8%. For C[C@@H]1CN([C@@H](C)CO)C(=O)c2cccc(NC(=O)c3ccc(-c4nccs4)cc3)c2O[C@H]1CN(C)Cc1ccc(C(=O)Nc2ccccc2N)cc1, the inhibition was inconclusive: 50.4%. With COc1cc(NC(=O)Cn2ncc(Cl)c(Cl)c2=O)c(C)cc1[N+](=O)[O-] the inhibition was active: 75.9%. For O=C(C[C@H]1CC[C@H]2[C@@H](COC[C@H](O)CN2Cc2ccc(Cl)cc2)O1)Nc1nccs1, the inhibition was inactive: -1.32%. For C=C1CC(COc2cc(=O)oc3ccccc23)(c2ccccc2)OC1=O (stereo not drawn), the inhibition was inconclusive: 50.8%. For CS(=O)(=O)Nc1ccc2c(c1)[C@@H]1C[C@@H](CC(=O)NCc3ccc(-c4ccccc4)cc3)O[C@@H](CO)[C@@H]1O2, the inhibition was active: 56.6%. In the case of CC(C)NC(=O)N(C)C[C@H]1Oc2c(NC(=O)c3ccc(-c4nccs4)cc3)cccc2C(=O)N([C@H](C)CO)C[C@H]1C, the inhibition is reported as inactive: -13.1%. With C/C(=N\NC(=O)CC#N)c1ccc(Oc2ccccc2)cc1 the inhibition was inactive: 14.3%. With Cc1nc2c3cc(F)ccc3n(Cc3ccc(F)cc3)c2s1 the inhibition was inconclusive: 54.4%. For CO[C@H](C(=O)N(C)C[C@@H]1OCc2ccccc2-c2c(n(C)c3ccccc23)C(=O)N([C@H](C)CO)C[C@@H]1C)c1ccccc1, the inhibition was inactive: -9.86%. For CCNC(=O)[C@@H]1[C@@H](CO)[C@@H]2Cn3c(ccc(/C=C/c4ccccc4)c3=O)[C@H]1N2, the inhibition was inactive: 0.0285%. For CCc1nc2ccc(C(=O)NCCCN3CCCC3=O)cn2c1N(CCC(C)C)CCN(C)C, the inhibition was inactive: -5.14%. For CC(C)C#Cc1ccc2c(c1)O[C@@H](CN(C)C(=O)NC(C)C)[C@@H](C)CN([C@@H](C)CO)S2(=O)=O, the inhibition was inactive: -9.7%. With Oc1c(C(Nc2nccs2)c2ccc(C(F)(F)F)cc2)ccc2cccnc12 (stereo not drawn) the inhibition was inconclusive: 50.1%. With O=C1C=C(Nc2ccc(Cl)cc2Cl)CC(c2ccco2)C1 (stereo not drawn) the inhibition was inconclusive: 52.6%. In the case of O=c1oc(-c2ccc(O)c(O)c2)cc2cc(O)cc(O)c12, the inhibition is reported as inconclusive: 50.5%. For Cc1noc(C)c1NC(=O)Nc1ccc2c(c1)C(=O)N([C@H](C)CO)C[C@H](C)[C@@H](CN(C)Cc1ccc(Cl)c(Cl)c1)OCCCC[C@@H](C)O2, the inhibition was inconclusive: 53.9%. With CN(Cc1cnn(Cc2ccccc2)c1)C(=O)c1cccc(S(=O)(=O)N2CCOCC2)c1 the inhibition was inactive: 41.4%. For C/C(=N\N1C(=O)c2ccccc2C1=O)c1cccc([N+](=O)[O-])c1, the inhibition was inconclusive: 54.3%. With CCN(CC)S(=O)(=O)c1ccc(-c2cn3cc(Cl)ccc3n2)cc1 the inhibition was inactive: -56.1%. With Cc1ccc(C(=O)O/N=C(\N)c2ccccn2)c(C)c1 the inhibition was active: 77.2%. For c1ccn2cc(-c3ccc4c(c3)OCCO4)nc2c1, the inhibition was active: 54.1%. For CC1=NOC(=O)/C1=C\c1ccc(-c2ccccc2Br)o1, the inhibition was inconclusive: 50.6%. With COc1ccc(C(=O)NC(=S)N2CCCc3ccccc32)cc1OC the inhibition was inconclusive: 50.6%. In the case of C[C@H]1CCCCO[C@@H](CN(C)Cc2ccccc2)[C@@H](C)CN([C@@H](C)CO)C(=O)c2cc(NC(=O)Nc3cccc4ccccc34)ccc2O1, the inhibition is reported as inconclusive: 63.9%. For COCCNC(=O)c1c[nH]c2ccc(S(=O)(=O)N3CCc4ccccc43)cc2c1=O, the inhibition was inconclusive: 50.4%. In the case of C[C@H](CO)N1C[C@H](C)[C@H](CN(C)CC2CCCCC2)OCCCC[C@H](C)Oc2ccc(NC(=O)Nc3ccc(F)cc3)cc2C1=O, the inhibition is reported as inactive: -8.6%. For Cc1ccc(NC(=O)c2ccc(Cl)nc2)cc1S(=O)(=O)N1CCOCC1, the inhibition was inconclusive: 50.8%. For C[C@@H]1CN([C@@H](C)CO)C(=O)c2cccc(NC(=O)C3CCCCC3)c2O[C@@H]1CN(C)Cc1ccc(C(=O)Nc2ccccc2N)cc1, the inhibition was inconclusive: 48.3%. With Cc1ccc(C(=O)c2no[n+]([O-])c2C(=O)c2ccc(C)cc2)cc1 the inhibition was inconclusive: 51.1%. For COCCNC(=O)C[C@@H]1C=C[C@H](NS(=O)(=O)c2ccc(C)cc2)[C@@H](CO)O1, the inhibition was inactive: -1.01%. For CCN(Cc1ccccc1)C(=O)COC(=O)c1cnc(C)cn1, the inhibition was inconclusive: 50.9%. With CCOC(=O)c1c(C)[nH]c(-c2csc(N)n2)c1C the inhibition was inconclusive: 50.2%. For C[C@@H]1CN([C@H](C)CO)C(=O)c2cccc(NC(=O)C3CCCCC3)c2O[C@@H]1CN(C)Cc1ccc(C(=O)Nc2ccccc2N)cc1, the inhibition was inconclusive: 49.5%. In the case of COc1ccc(/C=C2/SC(=O)N(CCCCCC(=O)Nc3ccccc3C(=O)O)C2=S)cc1, the inhibition is reported as active: 55.1%. In the case of O=C1CCCc2cc3c(cc21)CC1(C3)Cc2cc3c(cc2C1)C(=O)CCC3, the inhibition is reported as inconclusive: 51.9%. For Cn1c(=O)c2c(nc(NCC3CCCC(CN)C3)n2Cc2ccc(Cl)cc2Cl)n(C)c1=O (stereo not drawn), the inhibition was inconclusive: 52.2%. With O=C(O)/C=C/C(=O)c1ccc2c(c1)CCc1ccccc1-2 the inhibition was inconclusive: 50.1%. With CCCCCCCCCCn1ccc(=N)cc1 the inhibition was active: 57.7%.
